The whole screen tested about 310,000 compounds, of which about 14,000 (4.5%) showed an effect of 50% or more. Effects have a minus sign here. The list shows a part of the results.
Biological target: human ether-à-go-go-related gene (hERG) potassium channel (human, UniProt Q12809)
Experiment: primary screen, population patch clamp on CHO cells stably expressing hERG
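Also: peak tail current of the secondary pulse compared with the same well before compound.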

Sequence of human ether-à-go-go-related gene (hERG) potassium channel (Q12809 whole entry, looked up): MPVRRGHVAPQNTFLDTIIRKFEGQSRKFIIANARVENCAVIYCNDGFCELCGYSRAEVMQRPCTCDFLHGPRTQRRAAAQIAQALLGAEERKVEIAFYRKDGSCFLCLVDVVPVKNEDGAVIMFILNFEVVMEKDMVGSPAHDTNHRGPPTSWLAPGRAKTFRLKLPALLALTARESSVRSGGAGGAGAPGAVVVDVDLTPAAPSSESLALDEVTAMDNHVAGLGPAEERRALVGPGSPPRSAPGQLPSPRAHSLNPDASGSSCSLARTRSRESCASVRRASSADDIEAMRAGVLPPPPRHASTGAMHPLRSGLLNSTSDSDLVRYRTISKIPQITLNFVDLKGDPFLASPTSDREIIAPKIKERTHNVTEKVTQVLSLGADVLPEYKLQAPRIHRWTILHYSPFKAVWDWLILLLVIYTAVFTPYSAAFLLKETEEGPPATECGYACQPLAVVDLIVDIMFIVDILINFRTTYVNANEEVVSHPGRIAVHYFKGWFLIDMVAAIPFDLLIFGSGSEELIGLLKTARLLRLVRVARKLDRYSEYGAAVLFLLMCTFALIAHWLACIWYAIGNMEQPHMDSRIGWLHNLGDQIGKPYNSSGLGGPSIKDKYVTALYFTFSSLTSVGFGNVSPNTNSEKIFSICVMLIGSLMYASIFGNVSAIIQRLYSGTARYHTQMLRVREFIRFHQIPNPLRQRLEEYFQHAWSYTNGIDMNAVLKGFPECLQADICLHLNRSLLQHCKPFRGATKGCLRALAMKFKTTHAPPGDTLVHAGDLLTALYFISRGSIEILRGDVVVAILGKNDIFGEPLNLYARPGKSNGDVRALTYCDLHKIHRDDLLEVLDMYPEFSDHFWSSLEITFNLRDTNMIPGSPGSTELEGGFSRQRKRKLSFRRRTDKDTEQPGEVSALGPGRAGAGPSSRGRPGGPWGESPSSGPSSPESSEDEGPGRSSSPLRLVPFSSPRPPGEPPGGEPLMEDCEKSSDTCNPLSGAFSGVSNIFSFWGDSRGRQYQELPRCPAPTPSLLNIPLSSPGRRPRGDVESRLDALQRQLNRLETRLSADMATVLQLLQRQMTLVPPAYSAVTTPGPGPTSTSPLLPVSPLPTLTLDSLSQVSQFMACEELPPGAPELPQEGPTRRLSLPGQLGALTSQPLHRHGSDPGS

Structure (SMILES)	hERG current change (%, negative = inhibition) at 10uM [%]
CC(C)(C)NC(=O)C(c1ccc(F)cc1)N(CC1CCCO1)C(=O)c1csnn1 (stereo not drawn)	27.3
C=CCNC(=O)c1ccc(Sc2ccc(C)cc2)c([N+](=O)[O-])c1	8.32
COc1cccc(OC)c1C(=O)NC(=S)NNC(=O)[C@H]1C[C@@H]1c1ccccc1	9.52
O=C(CCS(=O)(=O)c1cccs1)Nc1ccc(C(=O)NC2CCN(Cc3ccccc3)CC2)cc1	9.05
N#Cc1c(-c2ccccc2)cc(-c2ccccc2)nc1SCCC(=O)O	18.4
CC1(c2ccc(Cl)cc2)NC(=O)CS1 (stereo not drawn)	-10.2
CCCCOc1ccc(OCCNC(=O)c2ccco2)cc1	-4.14
CCCCOc1ccc(C(=O)NCC(=O)NCc2ccccn2)cc1	11.4
Cn1c(COc2cccc3ccccc23)nnc1SCC(=O)OC1CCCCC1	-7.32
COc1ccc(N(C)S(=O)(=O)c2cccc(C(=O)NCC(c3cccs3)N(C)C)c2)cc1 (stereo not drawn)	-52.3
CCc1cc2c(N3CCN(c4nnc(CC)s4)CC3)ncnc2s1.Cl	-67.6
CCc1noc(C)c1C(=O)Nc1nnc(C2CCCCC2)s1	-18.3
O=C1/C(=C\c2cccnc2)N2CCC1CC2	15.1
O=C(Oc1ccc(-n2cnnn2)cc1)c1ccco1	2.47
Cc1ccc(C(=O)CN2C(=O)NC3(CCc4ccccc43)C2=O)s1 (stereo not drawn)	1.7
O=C1C(SC(F)(F)C(F)F)=C(C(F)(F)F)OC2C3C=CC(C3)C12 (stereo not drawn)	0.387
CCCC(=O)N(Cc1cc(=O)[nH]c2ccccc12)c1ccc(C)cc1	-3.22
CC(=O)c1cccc(S(=O)(=O)Nc2ccc3nc(C)sc3c2)c1	7.6
O=C(O)CCCC(=O)NCCCCc1ccccc1	15.4
COCCCNC(=O)Cn1ccc(NC(=O)OCc2ccccc2)nc1=O	14.2
CCCCNC(=O)CSc1nc(CCC)nc2ccccc12	9.42

Structure (SMILES)	hERG current change (%, negative = inhibition) at 10uM [%]
O=C(O)c1cc(Cl)c(Cl)cc1C(=O)NCc1ccco1	17.3
Cc1nc2ccccc2nc(C)c1=NOCc1ccccc1Cl	4.62
COc1ccccc1C(=O)NC(CCSC)C(=O)NCC(c1ccco1)N(C)C (stereo not drawn)	-22.4
O=C(O)CCN1C(=O)/C(=C2\C(=O)N(Cc3ccc(F)cc3)c3ccccc32)SC1=S	2.76
COc1cc(C)c(C(=O)CC(=O)c2c(C)cc(OC)cc2C)c(C)c1	-1.45
Cc1ccc(S(=O)(=O)Nc2cccc(/C=C/C(=O)O)c2)cc1	16.8
COc1ccc(Nc2nc(Cl)nc(NCc3ccco3)n2)c(OC)c1	18.2
O=C(COc1ccc2c3c(c(=O)oc2c1)CCC3)NCc1ccccn1	1.46
CC(C)OC(=O)C1C(=O)CC(C)(O)C(C(=O)OC(C)C)C1c1ccc(F)cc1 (stereo not drawn)	0.605
COc1ccccc1C1CCN(C(=O)c2ccc(C(C)(C)C)cc2)CC1	0.194
COCCCN1C(=O)C(=O)/C(=C(/O)c2ccc(S(=O)(=O)N3CCCCC3)cc2)C1c1cccc(OC)c1 (stereo not drawn)	-11
CCOc1ccc(C(=O)Nc2ccccc2-c2ccccc2)cc1Cl	22.7
CCOc1ccc(N(CC(=O)Nc2ccc(C)cc2C)S(C)(=O)=O)cc1	3.95
CC[C@]1(c2ccccc2)C(=O)N(C(=O)OC)N1C(=O)OC	25.2
O=C(CSc1nnc(NC(=O)c2ccccc2Cl)s1)Nc1ccc2c(c1)oc1ccccc12	9.16
NC(=O)CSc1ccc(S(=O)(=O)N2CCCCC2)cn1	12.9
NC(=O)C1CCCN(C(=O)CCc2nnc(C3(c4ccc(Cl)cc4)CCC3)o2)C1 (stereo not drawn)	-4.11
COc1ccc(S(=O)(=O)N(C)c2ccc(OCC(=O)Nc3cc(C)on3)cc2)cc1	-15.3
CCCCCOC(=O)Cn1c(SCC(=O)Nc2ccccc2)nc2c1c(=O)[nH]c(=O)n2C	-18.3
Cc1nnc2c(SC(C)C)nc3ccccc3n12	-77.2
O=C(COc1ccc(/C=N/NC(=O)c2ccccc2O)cc1)Nc1ccc([N+](=O)[O-])cc1	13.7

— paper PMC4336329 (PLoS ONE, 2015)
